# Data as given in the supplement of paper PMC8728848.
# The other results are listed elsewhere or left out.
# B1: MUB40 (Lactobacillus reuteri) (peptide)
# chain: CTAEGIKKFEGDGYELFKDNFPAGEKFDNDDTNDQFYTVIF
# What was measured:
# Test in all cases: glycan array binding signal (z-score within array); higher = stronger binding
# Settings in all cases: glycan notation: IUPAC condensed, linker removed
# [1] = molecular target: Neu5Ac(a2-3)Gal(b1-3)]Neu5Ac(a2-3)Gal(b1-4)]GlcNAc
# Outline: (§1)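 Columns mapping to the same glycan were averaged after glycan names were converted to IUPAC-condensed notation. The data come from 3228 arrays in the Consortium for Functional Glycomics database, limited to those with an available protein sequence. Binding is reported as a within-array Z-score averaged across arrays of one protein sequence and across linkers.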
# Neu5Ac(a2-3)Gal(b1-4)Glc = molecular target: Neu5Ac(a2-3)Gal(b1-4)Glc
# Outline: as §1
# [2] = molecular target: Neu5Ac(a2-3)Gal(b1-4)GlcNAc
# Outline: as §1
# [3] = molecular target: Neu5Ac(a2-3)Gal(b1-4)GlcNAc(b1-2)Man
# Outline: as §1
# [4] = molecular target: Neu5Ac(a2-3)Gal(b1-4)GlcNAc(b1-2)Man(a1-3)[GlcNAc(b1-4)][Neu5Ac(a2-3)Gal(b1-4)GlcNAc(b1-2)Man(a1-6)]Man(b1-4)GlcNAc(b1-4)GlcNAc
# Outline: as §1
# [5] = molecular target: Neu5Ac(a2-3)Gal(b1-4)GlcNAc(b1-2)Man(a1-3)[Neu5Ac(a2-3)Gal(b1-4)GlcNAc(b1-2)Man(a1-6)]Man(b1-4)GlcNAc(b1-4)GlcNAc
# Outline: as §1
# [6] = molecular target: Neu5Ac(a2-3)Gal(b1-4)GlcNAc(b1-2)Man(a1-3)[Neu5Ac(a2-3)Gal(b1-4)GlcNAc(b1-2)Man(a1-6)]Man(b1-4)GlcNAc(b1-4)[Fuc(a1-6)]GlcNAc
# Outline: as §1
# [7] = molecular target: Neu5Ac(a2-3)Gal(b1-4)GlcNAc(b1-2)Man(a1-3)[Neu5Ac(a2-6)Gal(b1-4)GlcNAc(b1-2)Man(a1-6)]Man(b1-4)GlcNAc(b1-4)GlcNAc
# Outline: as §1
# [8] = molecular target: Neu5Ac(a2-3)Gal(b1-4)GlcNAc(b1-2)[Neu5Ac(a2-3)Gal(b1-4)GlcNAc(b1-4)]Man(a1-3)[GlcNAc(b1-4)][Neu5Ac(a2-3)Gal(b1-4)GlcNAc(b1-2)[Neu5Ac(a2-3)Gal(b1-4)GlcNAc(b1-6)]Man(a1-6)]Man(b1-4)GlcNAc(b1-4)GlcNAc
# Outline: as §1
# [9] = molecular target: Neu5Ac(a2-3)Gal(b1-4)GlcNAc(b1-2)[Neu5Ac(a2-3)Gal(b1-4)GlcNAc(b1-4)]Man(a1-3)[GlcNAc(b1-4)][Neu5Ac(a2-3)Gal(b1-4)GlcNAc(b1-4)Man(a1-6)]Man(b1-4)GlcNAc(b1-4)GlcNAc
# Outline: as §1
# [10] = molecular target: Neu5Ac(a2-3)Gal(b1-4)GlcNAc(b1-2)[Neu5Ac(a2-3)Gal(b1-4)GlcNAc(b1-6)]Man(a1-6)[Neu5Ac(a2-3)Gal(b1-4)GlcNAc(b1-2)Man(a1-3)][GlcNAc(b1-4)]Man(b1-4)GlcNAc(b1-4)GlcNAc
# Outline: as §1
# [11] = molecular target: Neu5Ac(a2-3)Gal(b1-4)GlcNAc(b1-3)Gal
# Outline: as §1
# [12] = molecular target: Neu5Ac(a2-3)Gal(b1-4)GlcNAc(b1-3)Gal(b1-3)GlcNAc
# Outline: as §1
# [13] = molecular target: Neu5Ac(a2-3)Gal(b1-4)GlcNAc(b1-3)Gal(b1-4)GlcNAc
# Outline: as §1
# [14] = molecular target: Neu5Ac(a2-3)Gal(b1-4)GlcNAc(b1-3)Gal(b1-4)GlcNAc(b1-2)Man(a1-3)[Neu5Ac(a2-3)Gal(b1-4)GlcNAc(b1-3)Gal(b1-4)GlcNAc(b1-2)Man(a1-6)]Man(b1-4)GlcNAc(b1-4)GlcNAc
# Outline: as §1
# [15] = molecular target: Neu5Ac(a2-3)Gal(b1-4)GlcNAc(b1-3)Gal(b1-4)GlcNAc(b1-3)Gal(b1-4)GlcNAc
# Outline: as §1
# [16] = molecular target: Neu5Ac(a2-3)Gal(b1-4)GlcNAc(b1-3)Gal(b1-4)GlcNAc(b1-3)Gal(b1-4)GlcNAc(b1-2)Man(a1-3)[Neu5Ac(a2-3)Gal(b1-4)GlcNAc(b1-3)Gal(b1-4)GlcNAc(b1-3)Gal(b1-4)GlcNAc(b1-2)Man(a1-6)]GalNAc
# Outline: as §1
# [17] = molecular target: Neu5Ac(a2-3)Gal(b1-4)GlcNAc(b1-3)Gal(b1-4)GlcNAc(b1-3)GalNAc
# Outline: as §1
# [18] = molecular target: Neu5Ac(a2-3)Gal(b1-4)GlcNAc(b1-3)Gal(b1-4)GlcNAc(b1-3)[Neu5Ac(a2-3)Gal(b1-4)GlcNAc(b1-3)Gal(b1-4)GlcNAc(b1-6)]GalNAc
# Outline: as §1
# [19] = molecular target: Neu5Ac(a2-3)Gal(b1-4)GlcNAc(b1-3)Gal(b1-4)GlcNAc(b1-6)[Gal(b1-3)]GalNAc
# Outline: as §1
# [20] = molecular target: Neu5Ac(a2-3)Gal(b1-4)GlcNAc(b1-3)Gal(b1-4)[Fuc(a1-3)]GlcNAc
# Outline: as §1
# [21] = molecular target: Neu5Ac(a2-3)Gal(b1-4)GlcNAc(b1-3)GalNAc
# Outline: as §1
# [22] = molecular target: Neu5Ac(a2-3)Gal(b1-4)GlcNAc(b1-3)[Neu5Ac(a2-3)Gal(b1-4)GlcNAc(b1-6)]GalNAc
# Outline: as §1
# [23] = molecular target: Neu5Ac(a2-3)Gal(b1-4)GlcNAc(b1-6)GalNAc
# Outline: as §1
# [24] = molecular target: Neu5Ac(a2-3)Gal(b1-4)GlcNAc(b1-6)[Gal(b1-3)]GalNAc
# Outline: as §1
# [25] = molecular target: Neu5Ac(a2-3)Gal(b1-4)GlcNAc(b1-6)[Neu5Ac(a2-3)Gal(b1-3)]GalNAc
# Outline: as §1
# [26] = molecular target: Neu5Ac(a2-3)Gal(b1-4)GlcNAc6S
# Outline: as §1
# [27] = molecular target: Neu5Ac(a2-3)Gal(b1-4)[Fuc(a1-3)]GlcNAc
# Outline: as §1
# [28] = molecular target: Neu5Ac(a2-3)Gal(b1-4)[Fuc(a1-3)]GlcNAc(b1-2)Man
# Outline: as §1
# [29] = molecular target: Neu5Ac(a2-3)Gal(b1-4)[Fuc(a1-3)]GlcNAc(b1-3)Gal
# Outline: as §1
# [30] = molecular target: Neu5Ac(a2-3)Gal(b1-4)[Fuc(a1-3)]GlcNAc(b1-3)Gal(b1-4)GlcNAc
# Outline: as §1
# [31] = molecular target: Neu5Ac(a2-3)Gal(b1-4)[Fuc(a1-3)]GlcNAc(b1-3)Gal(b1-4)[Fuc(a1-3)]GlcNAc(b1-3)Gal(b1-4)[Fuc(a1-3)]GlcNAc
# Outline: as §1
# [32] = molecular target: Neu5Ac(a2-3)Gal(b1-4)[Fuc(a1-3)]GlcNAc(b1-3)GalNAc
# Outline: as §1
# [33] = molecular target: Neu5Ac(a2-3)Gal(b1-4)[Fuc(a1-3)]GlcNAc(b1-6)[Gal(b1-3)]GalNAc
# Outline: as §1
# [34] = molecular target: Neu5Ac(a2-3)Gal(b1-4)[Fuc(a1-3)]GlcNAc(b1-6)[Neu5Ac(a2-3)Gal(b1-3)]GalNAc
# Outline: as §1
# [35] = molecular target: Neu5Ac(a2-3)Gal(b1-4)[Fuc(a1-3)]GlcNAc6S
# Outline: as §1
# [36] = molecular target: Neu5Ac(a2-3)Gal6S(b1-4)GlcNAc
# Outline: as §1
# [37] = molecular target: Neu5Ac(a2-3)Gal6S(b1-4)[Fuc(a1-3)]GlcNAc
# Outline: as §1
binder,measurement,setting,value
B1,glycan array binding signal (z-score),[1],-0.307
same,glycan array binding signal (z-score),Neu5Ac(a2-3)Gal(b1-4)Glc,-0.426
same,glycan array binding signal (z-score),[2],-0.366
same,glycan array binding signal (z-score),[3],-0.206
same,glycan array binding signal (z-score),[4],-0.511
same,glycan array binding signal (z-score),[5],-0.479
same,glycan array binding signal (z-score),[6],-0.593
same,glycan array binding signal (z-score),[7],-0.389
same,glycan array binding signal (z-score),[8],-0.441
same,glycan array binding signal (z-score),[9],-0.142
same,glycan array binding signal (z-score),[10],-0.11
same,glycan array binding signal (z-score),[11],0.391
same,glycan array binding signal (z-score),[12],-0.406
same,glycan array binding signal (z-score),[13],-0.435
same,glycan array binding signal (z-score),[14],-0.348
same,glycan array binding signal (z-score),[15],1.72
same,glycan array binding signal (z-score),[16],-0.149
same,glycan array binding signal (z-score),[17],-0.41
same,glycan array binding signal (z-score),[18],-0.286
same,glycan array binding signal (z-score),[19],-0.508
same,glycan array binding signal (z-score),[20],-0.502
same,glycan array binding signal (z-score),[21],-0.032
same,glycan array binding signal (z-score),[22],-0.685
same,glycan array binding signal (z-score),[23],1.97
same,glycan array binding signal (z-score),[24],-0.296
same,glycan array binding signal (z-score),[25],-0.387
same,glycan array binding signal (z-score),[26],0.385
same,glycan array binding signal (z-score),[27],0.162
same,glycan array binding signal (z-score),[28],-0.305
same,glycan array binding signal (z-score),[29],-0.419
same,glycan array binding signal (z-score),[30],-0.046
same,glycan array binding signal (z-score),[31],0.097
same,glycan array binding signal (z-score),[32],0.351
same,glycan array binding signal (z-score),[33],-0.508
same,glycan array binding signal (z-score),[34],-0.58
same,glycan array binding signal (z-score),[35],-0.439
same,glycan array binding signal (z-score),[36],-0.048
same,glycan array binding signal (z-score),[37],0.706
